# Data published in PubChem BioAssay AID485364 (National Center for Advancing Translational Sciences (NCATS), 2010).
# The whole screen tested about 360,000 compounds, of which about 11,000 (3.1%) were called active. The inconclusive results got no clear call from the source; some entries with a clear call stand among them for comparison. Calls follow the shape of the dose curve; as a rule, active = well fitted inhibition curve with a large enough effect; inconclusive = small, poorly fitted or top-dose-only effect; inactive = no such curve, though single readings can be large or run the other way. No potency is given beside an inconclusive call; the fits are too rough.
# Target: Schistosoma mansoni thioredoxin glutathione reductase (TGR) (UniProt Q962Y6)
# Assay: qHTS Assay for the Inhibitors of Schistosoma Mansoni Peroxiredoxins; also: nearly all actives have a fitted effect of over 60% in size
# Conditions: purified TGR, DTNB reduction, TNB absorbance 405 nm; activity change, negative = inhibition: at 114 µM (top of the series) unless noted
# Summary of the method: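 Kinetic colorimetric format: TGR-catalysed, NADPH-driven DTNB reduction monitored via TNB absorbance. Enzyme dispensed at 20 nM; compound exposure 15 min at room temperature before reaction start.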
# % is scaled to controls: 0 for no effect and ±100 for the full control effect; potency is read from the fitted curve at half-maximal effect; tags tell the direction and shape of the fitted curve.
Structure (SMILES),Potency,"activity change, negative = inhibition"
O=Cc1ccc(N2Cc3ccccc3C2)cc1,"inconclusive [inhibitor, full curve, poor fit]",–
O=C(O)COc1ccc(Nc2ccccc2)cc1,"inconclusive [inhibitor, partial curve]",–
CN(C)CCCN=Cc1c(O)n(Cc2ccccc2)c(=O)c2ccccc12,"inconclusive [inhibitor, partial curve, poor fit]",–
Cc1cccc(NC(=O)c2ccc(-c3nc(CSc4ccccc4)c(C)o3)cc2)c1C,"inconclusive [inhibitor, partial curve]",–
CC(=O)c1cccc(NC(=O)COC(=O)c2ccc(S(C)(=O)=O)c([N+](=O)[O-])c2)c1,active: 3.16 µM,–
COC(=O)CCCC1=CC2=C(c3ccccc3)C(=O)C(C)(OC(=O)C3CCCC3)C(=O)C2=CN1C1CC1 (stereo not given),"inconclusive [inhibitor, partial curve]",–
CC1CCCCN1c1ccc(N)cc1C(N)=O (stereo not given),"inconclusive [inhibitor, partial curve]",–
CCC(C)c1ccc(NC(=S)NN2CCOCC2)cc1 (stereo not given),"inconclusive [inhibitor, full curve]",–
O=S(=O)(NCC(c1cccnc1)N1CCN(c2ccccc2)CC1)c1cc(F)ccc1F (stereo not given),"inconclusive [inhibitor, partial curve, poor fit]",–
Cc1occc1C(=O)NCc1ccccc1,"inconclusive [inhibitor, partial curve]",–
COc1ccc(N2CCC(CNC(=O)Nc3cccc(OC)c3)C2)cc1 (stereo not given),–,inactive: -26.7%
C=C(C)C(=O)N1CC2(CC(c3cccc(NC(=O)CC)c3)=NO2)C[C@H]1C(N)=O (stereo not given in full),"inconclusive [inhibitor, partial curve]",–
O=C(O)/C=C/C(=O)c1ccc2c(c1)CCc1ccccc1-2,active: 0.562 µM,–
CC(=O)Oc1c2occc2cc2ccc(=O)oc12,"inconclusive [inhibitor, partial curve]",–
Cc1ccc(-c2nnc(CSc3nnc(COc4ccccc4)n3-c3ccc(C)cc3)o2)cc1,"inconclusive [inhibitor, partial curve, poor fit]",–
Cc1ccc(-c2nn(Cc3ccccc3)cc2/C=C/C(=O)O)cc1C,–,inactive: 6.31%
Cc1cccc(NC(=S)NC(=O)CCc2ccccc2)c1C,"inconclusive [inhibitor, partial curve]",–
COc1ccc(-c2nc(CN3CCN(C(=O)c4ccco4)CC3)c(C)o2)cc1OC,active: 28.2 µM,–
CCN(CC(=O)Nc1cc(Cl)ccc1C)C(=O)CCOc1ccccc1C,active: 35.5 µM,–
CCOC(=O)C1CCN(/C=C2/C(=O)NC(=O)N(c3ccc(OCC)cc3)C2=O)CC1,"inconclusive [inhibitor, full curve, poor fit]",–
COc1ccc(C(=O)NCCNc2ncc(C(F)(F)F)cc2Cl)cc1[N+](=O)[O-],–,inactive: -12.1%
COC(=O)C1=C(c2ccc(C(C)=O)cc2)C[C@@H]2CC[C@H]1N2C(=O)NC1CCCCC1,"inconclusive [inhibitor, single point]",–
Cc1cc(C)cc(NC(=O)c2cc(C)n(Cc3cccs3)c2C)c1,active: 39.8 µM,–

Structure (SMILES),Potency,"activity change, negative = inhibition"
CCOC(=O)C1CCCN(C(=O)c2cn(C)c3ccc(S(=O)(=O)N(C)C)cc3c2=O)C1 (stereo not given),"inconclusive [inhibitor, full curve]",–
Cc1ccc2c(c1)c(C1=c3ccccc3=NC1=O)c(O)n2C,–,inactive: 0%
Cc1ccc(CSCc2ccc(C(=O)NC3CCCC3)o2)cc1,"inconclusive [inhibitor, partial curve]",–
CC(C)(C)Nc1c(-c2cccs2)nc2ccccn12,active: 50.1 µM,–
CCOc1ccc(CC(=O)C2C(=O)CCCC2=O)cc1OCC,active: 31.6 µM,–
COP(=O)(Cc1ccc(C#N)o1)OC,active: 22.4 µM,–
CCOC(=O)N1CCc2c(sc3c2c(=O)n(-c2ccc(F)cc2)c(=O)n3CC(=O)c2ccccc2)C1,–,inactive: -1.9%
Cc1ccc(CN2CCN(Cc3cccn3-c3ccc(Cl)cn3)CC2CCO)o1 (stereo not given),"inconclusive [inhibitor, full curve, poor fit]",–
CN(C)CCNC(=O)c1cccc(S(=O)(=O)Nc2ccccc2F)c1,"inconclusive [inhibitor, full curve]",–
O=C(NC1CCCC1)C1CCCN1S(=O)(=O)c1cccc2cccnc12 (stereo not given),–,inactive: 0%
Nc1ccc(S(=O)(=O)NC2(C(F)(F)F)NC(=O)N(c3cccc(Cl)c3)C2=O)cc1 (stereo not given),–,inactive: 5.51%
CCn1c(CC(=O)Nc2ccccc2C)nnc1SCC(=O)NC1CCCC1,–,inactive: 6.38%
Cc1cccc(N2C(=O)NC(=O)/C(=C/c3cc4c(cc3[N+](=O)[O-])OCO4)C2=O)c1,active: 2.24 µM,–
CCOc1cc(/C=N/NC(=O)c2ccc3c(c2)OCCO3)cc(Br)c1O,"inconclusive [inhibitor, partial curve]",–
Cc1ccc(NC(=O)c2ccc(-n3cccn3)c([N+](=O)[O-])c2)cc1C,active: 11.2 µM,–
Cc1ccc(CNC(=O)[C@H](Cc2ccccc2)NC(=O)C2CCNCC2)cc1,"inconclusive [inhibitor, single point]",–
Cc1cc(Cl)ccc1NNC(N)=S,"inconclusive [inhibitor, partial curve]",–
COc1cc(OC)cc(-c2nnc(NC(=O)CCS(=O)(=O)c3ccc(C)cc3)o2)c1,"inconclusive [inhibitor, partial curve, poor fit]",–
CCC(c1nnnn1Cc1ccco1)N(Cc1cc2cc(OC)ccc2[nH]c1=O)C1CCCCC1 (stereo not given),active: 12.6 µM,–
O=c1c(N2CCOCC2)coc2ccccc12,"inconclusive [inhibitor, partial curve]",–
O=C(/C=C/C=C/c1ccccc1)CC1(O)C(=O)Nc2ccccc21 (stereo not given),"inconclusive [inhibitor, partial curve]",–
Cc1ccccc1C(=O)NCC(=O)OCCOc1ccc(C(C)C)c(C)c1,"inconclusive [inhibitor, full curve]",–
